This is one part of the list.
Experiments:
Experiment in all cases: glycan array binding signal (z-score within array); higher = stronger binding
Conditions in all cases: glycan notation: IUPAC condensed, linker removed
[1] = biological target: Neu5Ac(a2-3)GalNAc(b1-4)GlcNAc
Method in brief: (§1)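 The binding signal is a Z-score computed within each array and averaged over linkers. Arrays of the same protein sequence at different concentrations or buffers were also averaged together. Data originate from 3228 arrays in the Consortium for Functional Glycomics database, kept only where the protein sequence was available.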

[2] = biological target: Neu5Ac(a2-3)[GalNAc(b1-4)]Gal(b1-4)Glc
Method in brief: as §1

[3] = biological target: Neu5Ac(a2-3)[GalNAc(b1-4)]Gal(b1-4)GlcNAc
Method in brief: as §1

[4] = biological target: Neu5Ac(a2-3)[GalNAc(b1-4)]Gal(b1-4)GlcNAc(b1-3)GalNAc
Method in brief: as §1

[5] = biological target: Neu5Ac(a2-3)[Neu5Ac(a2-6)]GalNAc
Method in brief: as §1

Neu5Ac(a2-6)Gal = biological target: Neu5Ac(a2-6)Gal
Method in brief: as §1

[6] = biological target: Neu5Ac(a2-6)Gal(b1-3)GlcNAc(b1-3)[Gal(b1-4)GlcNAc(b1-6)]Gal(b1-4)Glc
Method in brief: as §1

Neu5Ac(a2-6)Gal(b1-4)Glc = biological target: Neu5Ac(a2-6)Gal(b1-4)Glc
Method in brief: as §1

[7] = biological target: Neu5Ac(a2-6)Gal(b1-4)GlcNAc
Method in brief: as §1

[8] = biological target: Neu5Ac(a2-6)Gal(b1-4)GlcNAc(b1-2)Man
Method in brief: as §1

[9] = biological target: Neu5Ac(a2-6)Gal(b1-4)GlcNAc(b1-2)Man(a1-3)Man(b1-4)GlcNAc(b1-4)GlcNAc
Method in brief: as §1

[10] = biological target: Neu5Ac(a2-6)Gal(b1-4)GlcNAc(b1-2)Man(a1-3)[Gal(b1-4)GlcNAc(b1-2)Man(a1-6)]Man(b1-4)GlcNAc(b1-4)GlcNAc
Method in brief: as §1

[11] = biological target: Neu5Ac(a2-6)Gal(b1-4)GlcNAc(b1-2)Man(a1-3)[GlcNAc(b1-2)Man(a1-6)]Man(b1-4)GlcNAc(b1-4)GlcNAc
Method in brief: as §1

[12] = biological target: Neu5Ac(a2-6)Gal(b1-4)GlcNAc(b1-2)Man(a1-3)[GlcNAc(b1-4)][Neu5Ac(a2-6)Gal(b1-4)GlcNAc(b1-2)Man(a1-6)]Man(b1-4)GlcNAc(b1-4)GlcNAc
Method in brief: as §1

[13] = biological target: Neu5Ac(a2-6)Gal(b1-4)GlcNAc(b1-2)Man(a1-3)[Man(a1-6)]Man(b1-4)GlcNAc(b1-4)GlcNAc
Method in brief: as §1

[14] = biological target: Neu5Ac(a2-6)Gal(b1-4)GlcNAc(b1-2)Man(a1-3)[Neu5Ac(a2-3)Gal(b1-4)GlcNAc(b1-2)Man(a1-6)]Man(b1-4)GlcNAc(b1-4)GlcNAc
Method in brief: as §1

[15] = biological target: Neu5Ac(a2-6)Gal(b1-4)GlcNAc(b1-2)Man(a1-3)[Neu5Ac(a2-6)Gal(b1-4)GlcNAc(b1-2)Man(a1-6)]Man(b1-4)GlcNAc(b1-4)GlcNAc
Method in brief: as §1

[16] = biological target: Neu5Ac(a2-6)Gal(b1-4)GlcNAc(b1-2)Man(a1-3)[Neu5Ac(a2-6)Gal(b1-4)GlcNAc(b1-2)Man(a1-6)]Man(b1-4)GlcNAc(b1-4)[Fuc(a1-6)]GlcNAc
Method in brief: as §1

[17] = biological target: Neu5Ac(a2-6)Gal(b1-4)GlcNAc(b1-2)Man(a1-6)Man(b1-4)GlcNAc(b1-4)GlcNAc
Method in brief: as §1

[18] = biological target: Neu5Ac(a2-6)Gal(b1-4)GlcNAc(b1-2)Man(a1-6)[Gal(b1-4)GlcNAc(b1-2)Man(a1-3)]Man(b1-4)GlcNAc(b1-4)GlcNAc
Method in brief: as §1

[19] = biological target: Neu5Ac(a2-6)Gal(b1-4)GlcNAc(b1-2)Man(a1-6)[GlcNAc(b1-2)Man(a1-3)]Man(b1-4)GlcNAc(b1-4)GlcNAc
Method in brief: as §1

[20] = biological target: Neu5Ac(a2-6)Gal(b1-4)GlcNAc(b1-2)Man(a1-6)[Man(a1-3)]Man(b1-4)GlcNAc(b1-4)GlcNAc
Method in brief: as §1

[21] = biological target: Neu5Ac(a2-6)Gal(b1-4)GlcNAc(b1-2)[Neu5Ac(a2-6)Gal(b1-4)GlcNAc(b1-4)]Man(a1-3)[GlcNAc(b1-4)][Neu5Ac(a2-6)Gal(b1-4)GlcNAc(b1-2)[Neu5Ac(a2-6)Gal(b1-4)GlcNAc(b1-6)]Man(a1-6)]Man(b1-4)GlcNAc(b1-4)GlcNAc
Method in brief: as §1

[22] = biological target: Neu5Ac(a2-6)Gal(b1-4)GlcNAc(b1-2)[Neu5Ac(a2-6)Gal(b1-4)GlcNAc(b1-4)]Man(a1-3)[GlcNAc(b1-4)][Neu5Ac(a2-6)Gal(b1-4)GlcNAc(b1-4)Man(a1-6)]Man(b1-4)GlcNAc(b1-4)GlcNAc
Method in brief: as §1

[23] = biological target: Neu5Ac(a2-6)Gal(b1-4)GlcNAc(b1-2)[Neu5Ac(a2-6)Gal(b1-4)GlcNAc(b1-6)]Man(a1-6)[Neu5Ac(a2-6)Gal(b1-4)GlcNAc(b1-2)Man(a1-3)][GlcNAc(b1-4)]Man(b1-4)GlcNAc(b1-4)GlcNAc
Method in brief: as §1

[24] = biological target: Neu5Ac(a2-6)Gal(b1-4)GlcNAc(b1-3)Gal(b1-3)GlcNAc
Method in brief: as §1

[25] = biological target: Neu5Ac(a2-6)Gal(b1-4)GlcNAc(b1-3)Gal(b1-4)GlcNAc
Method in brief: as §1

[26] = biological target: Neu5Ac(a2-6)Gal(b1-4)GlcNAc(b1-3)Gal(b1-4)GlcNAc(b1-2)Man(a1-3)[Neu5Ac(a2-6)Gal(b1-4)GlcNAc(b1-3)Gal(b1-4)GlcNAc(b1-2)Man(a1-6)]GalNAc
Method in brief: as §1

[27] = biological target: Neu5Ac(a2-6)Gal(b1-4)GlcNAc(b1-3)Gal(b1-4)GlcNAc(b1-3)Gal(b1-4)GlcNAc
Method in brief: as §1

[28] = biological target: Neu5Ac(a2-6)Gal(b1-4)GlcNAc(b1-3)Gal(b1-4)GlcNAc(b1-3)Gal(b1-4)GlcNAc(b1-2)Man(a1-3)[Neu5Ac(a2-6)Gal(b1-4)GlcNAc(b1-3)Gal(b1-4)GlcNAc(b1-3)Gal(b1-4)GlcNAc(b1-2)Man(a1-6)]GalNAc
Method in brief: as §1

[29] = biological target: Neu5Ac(a2-6)Gal(b1-4)GlcNAc(b1-3)Gal(b1-4)GlcNAc(b1-3)GalNAc
Method in brief: as §1

[30] = biological target: Neu5Ac(a2-6)Gal(b1-4)GlcNAc(b1-3)Gal(b1-4)GlcNAc(b1-3)[Neu5Ac(a2-6)Gal(b1-4)GlcNAc(b1-3)Gal(b1-4)GlcNAc(b1-6)]GalNAc
Method in brief: as §1

[31] = biological target: Neu5Ac(a2-6)Gal(b1-4)GlcNAc(b1-3)Gal(b1-4)GlcNAc(b1-6)[Gal(b1-3)]GalNAc
Method in brief: as §1

[32] = biological target: Neu5Ac(a2-6)Gal(b1-4)GlcNAc(b1-3)Gal(b1-4)[Fuc(a1-3)]GlcNAc(b1-3)Gal(b1-4)[Fuc(a1-3)]GlcNAc
Method in brief: as §1

[33] = biological target: Neu5Ac(a2-6)Gal(b1-4)GlcNAc(b1-3)GalNAc
Method in brief: as §1

[34] = biological target: Neu5Ac(a2-6)Gal(b1-4)GlcNAc(b1-3)[Neu5Ac(a2-6)Gal(b1-4)GlcNAc(b1-6)]GalNAc
Method in brief: as §1

[35] = biological target: Neu5Ac(a2-6)Gal(b1-4)GlcNAc(b1-6)GalNAc
Method in brief: as §1

B1: ACA (Amaranthus caudatus) (protein)
chain: MAGLPVIMCLKSNNNQKYLRYQSDNIQQYGLLQFSADKILDPLAQFEVEPSKTYDGLVHIKSRYTNKYLVRWSPNHYWITASANEPDENKSNWACTLFKPLYVEEGNMKKVRLLHVQLGHYTQNYTVGGSFVSYLFAESSQIDTGSKDVFHVIDWKSIFQFPKRYVTFKGNNGKYLGVITINQLPCLQFGYDNLNDPKVAHEMFVTSNGTICIKSTYMNKFWRLSTDDWILVDGNDPRETNEAAALFRSDVHDFNVISLLNMQKTWFIKRFTSGKPGFINCMNAATQNVDETAILEIIELGSNN
glycan array binding signal (z-score) [1]: -0.452 | glycan array binding signal (z-score) [2]: -0.452 | glycan array binding signal (z-score) [3]: -0.069 | glycan array binding signal (z-score) [4]: 2.5 | glycan array binding signal (z-score) [5]: -0.305 | glycan array binding signal (z-score) (Neu5Ac(a2-6)Gal): 0.179 | glycan array binding signal (z-score) [6]: -0.294 | glycan array binding signal (z-score) (Neu5Ac(a2-6)Gal(b1-4)Glc): 0.034 | glycan array binding signal (z-score) [7]: -0.272 | glycan array binding signal (z-score) [8]: -0.035 | glycan array binding signal (z-score) [9]: -0.477 | glycan array binding signal (z-score) [10]: -0.257 | glycan array binding signal (z-score) [11]: -0.564 | glycan array binding signal (z-score) [12]: -0.58 | glycan array binding signal (z-score) [13]: -0.11 | glycan array binding signal (z-score) [14]: -0.055 | glycan array binding signal (z-score) [15]: -0.264 | glycan array binding signal (z-score) [16]: -0.109 | glycan array binding signal (z-score) [17]: -0.371 | glycan array binding signal (z-score) [18]: 0.04 | glycan array binding signal (z-score) [19]: -0.358 | glycan array binding signal (z-score) [20]: -0.674 | glycan array binding signal (z-score) [21]: -0.392 | glycan array binding signal (z-score) [22]: -0.399 | glycan array binding signal (z-score) [23]: -0.582 | glycan array binding signal (z-score) [24]: -0.069 | glycan array binding signal (z-score) [25]: 0.125 | glycan array binding signal (z-score) [26]: 0.215 | glycan array binding signal (z-score) [27]: -0.252 | glycan array binding signal (z-score) [28]: 3.17 | glycan array binding signal (z-score) [29]: -0.342 | glycan array binding signal (z-score) [30]: 4.69 | glycan array binding signal (z-score) [31]: 0.797 | glycan array binding signal (z-score) [32]: 0.326 | glycan array binding signal (z-score) [33]: 0.008 | glycan array binding signal (z-score) [34]: -0.674 | glycan array binding signal (z-score) [35]: 0.57

— the supplement of paper PMC8728848
